The results in this text go back to PMC12136788.

The other results are listed elsewhere or left out.

Sequences and labels used below:
T1: UNK ZnF1-3 (human, UniProt Q9C0B0 31-174)
T1 sequence: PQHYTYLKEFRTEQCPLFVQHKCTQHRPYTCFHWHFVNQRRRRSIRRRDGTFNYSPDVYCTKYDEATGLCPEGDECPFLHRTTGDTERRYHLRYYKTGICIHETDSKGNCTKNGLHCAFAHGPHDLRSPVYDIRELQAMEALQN

B1: chr3:19992450:19992451:+_ENSG00000144566_ENST00000273047|hu_hu|FALSE|FALSE (ssRNA)
RNA: GGGAGUUCUACAGUCCGACGAUCUUUCACAAAACGAAGCACUAGGCUUGAUUUGCCAACAGCGGACUCUCCCAGAAGUACUAGUUUGAACUGGCAUAUUUUAUUUCCCGUAUUUGGCCCGUUGGGUCUUGUUGCGCCUCGACUCAACAGAGGAUUGAGCAUCA
B2: chr7:135333399:135333400:+_ENSG00000155561_ENST00000285968|hu_hu|FALSE|FALSE (ssRNA)
RNA: GGGAGUUCUACAGUCCGACGAUCUGUCCAUAUACAAAGAAAGAAAUAGCAAAAUAUUUUUGGUCAUAAUUUAGAAAGAAACUAAUCUAUAAAAUGGAGACAAUUCUCCCCAAUUCAUCUCUCUCAUAGAAGAGCAUAAGCACGCAACAGAGGAUUGAGCAUCA
B3: chr5:177632888:177632889:+_ENSG00000197451_ENST00000358344|hu_hu|FALSE|FALSE (ssRNA)
RNA: GGGAGUUCUACAGUCCGACGAUCUAUUGUACAGUCAACGACCUCUCCAAAUUUAGUAAAAUAGUCUUUUAAAUCUUUUUUGCUAGUAUCCCAGCUCAGGCCACCAACGAACAUUUUUCCCGCGUCCUCCUCGUUCUUGCUGGCCAACAGAGGAUUGAGCAUCA
B4: chr8:26933331:26933332:-_ENSMUSG00000031575_ENSMUST00000166078|mus_mus|FALSE|FALSE (ssRNA)
RNA: GGGAGUUCUACAGUCCGACGAUCCUGGUGGAACUUGGUGCCUUUCUUGCUCCGCCAAGAAUAGCUAAACUUAUCAUAGCCUAAGGGAGCUUGGAGGUUACCUAAGGGCUGGGACCAGCCCAGCCUGGCAGCAGUGUCUGGGGGCAACAGAGGAUUGAGCAUCA
B5: chr10:115881139:115881140:-_ENSG00000165813_ENST00000369287|hu_hu|motif|central (ssRNA)
RNA: GGGAGUUCUACAGUCCGACGAUCAUAAAAAUAUUUUCACCAGGGUAGCAUAUAUAACAACAUUUACAUUAUUAAGGAUUCGGUUUUUUUCUUUUACUGAUAAAUCUUGGUUUAAAUUUGCAUGUAACAAUUUUUAGAAAAUAACAACAGAGGAUUGAGCAUCA
B6: 15478512_15479670_848_CDS_ENSG00000164985_ENST00000380738|human|control|control (ssRNA)
RNA: GGGAGUUCUACAGUCCGACGAUCGGGUCUGCCUCUUGGUUUUGGAAUCUUGACUUCUGUAGCUGCAGGUCGUCCUCUUUUAGGACUCACUUUUAGAUUAACAGAUGCUGUUGCUGUUGUCACUACUCCUGCCUCCUCAGUUUCCAACAGAGGAUUGAGCAUCA
B7: chr4:120564322:120564323:+_ENSMUSG00000032890_ENSMUST00000071093|mus_mus|FALSE|FALSE (ssRNA)
RNA: GGGAGUUCUACAGUCCGACGAUCAAGUGUCCAUACGAUGCUCCUUUGGGUUCUUUCCAGCAAGAUACAGAGAUGUGGACUAUAUAGUCCAUGUGAUCACCAGGACUGAUUGUACACAGACAAAUGGACAAAUAUGUGGACACACAACAGAGGAUUGAGCAUCA
B8: chr2:39006174:39006175:+_ENSG00000152147_ENST00000409566|hu_hu|FALSE|FALSE (ssRNA)
RNA: GGGAGUUCUACAGUCCGACGAUCUCAUUCUUCUCACUGGCUGUCACUCGGACCUCUUUGUAAAUGUAAUCUUGCCAUUCUAAGGGGCCUUUCUUCAUCCAUUCACUCAUGAUUGCCACCUGGCUAAAUCAGUUAAAAAACUCCCAACAGAGGAUUGAGCAUCA
B9: chr6:86333760:86333761:-_ENSG00000135316_ENST00000355238|hu_mus|hu_hu_hu_mus_True|28_108 (ssRNA)
RNA: GGGAGUUCUACAGUCCGACGAUCUUCUUCAAGAAUCUGCUCCUUGGUUUUACUCUUAGGAAUCGAGCCCACAAAAAGCCUAUUGUUGGCAACUGAGAUGCAGACACCAAUAUGUUUCCCGGAACGAAUUUCAUGAUUAUUAUACAACAGAGGAUUGAGCAUCA
B10: chr4:83978119:83978120:+_ENSG00000138663_ENST00000264389|hu_mus|FALSE|FALSE (ssRNA)
RNA: GGGAGUUCUACAGUCCGACGAUCGUUUAUGUAAGCCUCGGCCUGGACGGGAUCGUCAUCCUCCAGGUAUAGCCUUGCAAUCUUCAGGUAAGUCUCCAGCUUAUAAUCUACGUUGUACUGUUUUUGUCCUGUUUCCAGAGGAAUCAACAGAGGAUUGAGCAUCA
B11: chrX:106345308:106345309:+_ENSMUSG00000031246_ENSMUST00000033598|mus_hu|FALSE|FALSE (ssRNA)
RNA: GGGAGUUCUACAGUCCGACGAUCUUCUCUCAUCCACUUCCGAUUCUCUUCAUUGGCUGCAAUAUCUUUUUCUUCAAAUCCUAUUUUGUUGGCUUCUAGGAAACCAAGCACAUCUUGUUGUUUCUUCUUAAUCGCUGUAGAGCCCAACAGAGGAUUGAGCAUCA
B12: chr7:141450121:141450122:+_ENSG00000106028_ENST00000265304|hu_mus|hu_hu_hu_mus_True|98_98 (ssRNA)
RNA: GGGAGUUCUACAGUCCGACGAUCUCAUCCGUUCUAUUCCUUCUCUUUUGUCUGGUCACUCAGAAAUAUAAUGUUAUCAGCUAUGAUUGUUGUUGCUUGCCGCCUCACAUUGUUUUUAUCCAUGUACUCGCCAUAGUCCACUUUCAACAGAGGAUUGAGCAUCA
B13: chr11:102337468:102337469:-_ENSMUSG00000034621_ENSMUST00000143842|mus_mus|FALSE|FALSE (ssRNA)
RNA: GGGAGUUCUACAGUCCGACGAUCAAGGAAAACUACCUCCAGGAUGGCAGAGGCGGCCAGAGCAUGGCUAGAUCUACAACCUAACGAGAAGCAGCACAAAAAUGUUAAUACUGUUUUAUUUAAAUAUUUACACGGGCUGAAAGCCAACAGAGGAUUGAGCAUCA
B14: chr3:41268740:41268741:+_ENSG00000168036_ENST00000349496|perfect_dup|motif|central (ssRNA)
RNA: GGGAGUUCUACAGUCCGACGAUCCACUCUGCUUGUGGUCCACAGUAGUUUUUCGUAAGUAUAGGUCCUCAUUAUAUUUACGGAAGCUUGGGGUCCACCACUAGCCAGUAUGAUGAGCUUGCUUUCUUGGUUGCCAUAAGCUAACAACAGAGGAUUGAGCAUCA

This assay has as its target T1, UNK ZnF1-3. Kind of assay: nsRBNS (natural sequence RNA bind-n-seq); RBNS binding buffer (assumed for nsRBNS): 25 mM Tris pH 7.5, 150 mM KCl, 3 mM MgCl2, 0.01% Triton X-100, 500 ug/ml BSA, 20 U/ml SUPERase-In, 4 C; UNK is unkempt and MSI1 is Musashi-1; names of the RNAs are library labels; protein concentration not given here; high values mean tight binding.
B1 gave a binding signal of 0.685 enrichment R.

B2 registered a binding signal of 1.9 enrichment R.

Consider B3, for which the binding signal came out at 1.66 enrichment R.

On to B4, for which the binding signal stood at 0.823 enrichment R.

The molecule B5 returned a binding signal of 2.85 enrichment R.

Regarding B6, the binding signal was found to be 0.365 enrichment R.

In turn, B7 yielded a binding signal of 1.69 enrichment R.

B8: the binding signal came out at 0.645 enrichment R.

B9 registered a binding signal of 1.08 enrichment R.

For the molecule B10, the binding signal worked out at 0.519 enrichment R.

Regarding B11, the binding signal is 0.412 enrichment R.

With B12, the binding signal came to 0.411 enrichment R.

For B13, the binding signal amounted to 2.59 enrichment R.

Molecule B14 yielded a binding signal of 1.29 enrichment R.
